Results as given in PubChem BioAssay AID493208 (National Center for Advancing Translational Sciences (NCATS), 2011).
The campaign covered roughly 44,000 compounds. About 340 (0.77%) were called active. Not shown: some 5% with an inconclusive outcome. Calls come from the whole dose curve; as a rule, active = well fitted inhibition curve with a large enough effect; inconclusive = small, poorly fitted or top-dose-only effect; inactive = flat fitted curve, though single readings scatter. The list shows a part of the results.

Assay: Acumen qHTS Assay for Inhibitors of the mTORC1 Signaling Pathway in MEF (Tsc2-/-, p53-/-) Cells: Sytravon;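 note: plate controls were DMSO for no effect and rapamycin for full effect; nearly all actives have a fitted effect of over 50% in size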
Details: phospho-rpS6 immunofluorescence/PI, 24 h; series mostly up to 38.3 µM; activity change, negative = inhibition: at the top concentration
Outline: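 Read-out: phospho-S6 Alexa-488 intensity over PI intensity per well, scored as % active cells using thresholds from rapamycin (7.5 nM) and DMSO controls. Tsc2-/-, p53-/- MEFs exposed to compound for 24 h; PI cell count recorded as viability.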

Activity change, negative = inhibition, inactive:
Cc1cc(Br)ccc1NC(=O)CSc1c2c(nc3ccccc13)CCC2 -10.3%
CCOc1ccc(CNC(=O)CCc2c(C)nn(-c3ccc(N4CCCCC4)nn3)c2C)cc1 -2.46%
CC(C)(C)C(=O)CSc1nc2ccsc2c(=O)n1Cc1ccccc1Cl -0.006%
CSc1ccc(CCNC(=O)c2cc(C)nc3c2c(C)nn3-c2cccc(F)c2)cc1 6.65%
COc1ccccc1N1CCN(c2ccc(=O)n(CC(=O)NCc3ccc(F)cc3)n2)CC1 -7.62%
COc1ccc(NC(=O)c2cc3cc(C)ccc3[nH]2)cc1 -0.695%
CCOc1ccccc1NC(=O)CSc1nc2c(oc3ccccc32)c(=O)n1-c1ccc(F)cc1 2.63%
COc1cccc(CSc2nc3n(n2)C(c2ccc(C(=O)O)cc2)C(C(=O)Nc2ccccc2)=C(C)N3)c1 (stereo unspecified) -5.7%
O=C(OCc1cc(=O)n2nc(-c3cccs3)sc2n1)c1ccccc1Cl -1.07%
CSc1ccccc1-c1nnc(NC(=O)c2ccc3c(c2)OCCO3)o1 -10.4%
Cc1c(C(=O)N2CCCCCC2)c(S(=O)(=O)NCc2ccccc2)c(C)n1C -13.9%
O=C(CSc1nc(=O)n(CCN2CCOCC2)c2c1CCC2)Nc1ccc(Cl)c(Cl)c1 3.75%
O=C(Nc1ccc(F)c(Cl)c1)Nc1c[nH]c(=O)[nH]c1=O 0%
CC(CNC(=O)c1cnn(-c2ccc(F)cc2)c1-n1cccc1)c1ccccc1 (stereo unspecified) -4.94%
CC(=O)Nc1ccccc1-c1nc2ccccc2n(CC(=O)Nc2cccc(C)c2C)c1=O -15%
Cc1ccc2nc(SCc3nc(-c4ccc(Cl)cc4)no3)[nH]c2c1 -21.7%
Cc1cc2c(cc1S(=O)(=O)Nc1cccc(Cl)c1C)n(C)c(=O)c(=O)n2C -2.02%
Cc1cc(C)cc(N2C(=O)CSC23C(=O)N(Cc2c(F)cccc2Cl)c2ccccc23)c1 (stereo unspecified) 3.7%
CCOC(=O)c1cc(-c2ccccc2)n(CCC(=O)Nc2ccccc2CC)c1C -5.03%
COc1ccc(C2CC(=O)N(Cc3ccc(C)cc3)c3c2c(C)nn3-c2nc(C)cc(C)n2)c(OC)c1 (stereo unspecified) 0.492%
Cc1cccc2nc(-c3ccccn3)c(Nc3ccc(F)cc3)n12 -15.5%
CCCCC12CN3CC(C)(CN(C1)C3c1c[nH]c3ccccc13)C2=O (stereo unspecified) 1.82%
CCCCC(CC)CNC(=O)Cc1ccc(-n2c(=O)[nH]c3ccccc3c2=O)cc1 (stereo unspecified) 1.06%
Cc1cccc(CSc2nc3c([nH]c4ccccc43)c(=O)n2C)c1 1.39%
CC(=O)N1c2ccc(S(=O)(=O)Nc3ccc(C)c(Cl)c3)cc2CC1C (stereo unspecified) -22.1%
COc1ccc(N2CCN(S(=O)(=O)c3ccc(-c4coc(C)n4)cc3)CC2)cc1 0.961%
CCOc1ccc(CC(=O)Nc2c(C(=O)c3ccccc3)oc3ccc(Cl)cc23)cc1OCC -0.783%
Cc1c(CCNC(=O)c2ccc(C(C)(C)C)cc2)sc2nc(-c3ccc(F)cc3)nn12 -3.33%
CC1=C(C(=O)Nc2cccnc2)C(c2ccc(C)cc2)n2nc(SCc3ccccc3F)nc2N1 (stereo unspecified) -7.59%
COc1cc2c(cc1OC)n(CC(=O)c1cc(C)ccc1C)c(=O)n1nc(CCn3nc(C)cc3C)nc21 0.166%
Cc1cc(Nc2ccc(F)cc2F)nc(-n2nc(C)cc2C)n1 5.22%
CCc1cc2c(cc3c(=O)n(CCCC(=O)NCc4cccc(Br)c4)ncn32)s1 -5.51%
CNS(=O)(=O)c1cn(CC(=O)N2CCN(c3ccc(C(C)=O)cc3)CC2)cc1S(=O)(=O)NC -3.51%
Cc1ccc(NC(=O)C(CC(C)C)N2Cc3ccccc3C2=O)cc1F (stereo unspecified) 0%
Cc1ccc(-n2ncc(C(=O)NCc3ccc4c(c3)OCO4)c2C2CCN(C(=O)OC(C)(C)C)CC2)c(C)c1 3.9%
CC(=O)Nc1ccc(NS(=O)(=O)c2c(C(=O)N3CCCCCC3)c(C)n(C)c2C)cc1 10.7%
COC(=O)c1ccc(NC(=O)c2cc(S(=O)(=O)N3CCOCC3)cn2C)cc1 -1.46%
Cc1ccccc1OCC(=O)Nc1ccc(S(=O)(=O)N(Cc2ccccc2)c2ccccc2)cc1 -3.03%
COc1ccc(CCNC(=O)CSc2cn(CCNC(=O)c3c(F)cccc3F)c3ccccc23)cc1OC 5.99%
CN(C)c1ccc(NC(=O)Cn2c(SCc3ccc(F)cc3)nc3ccncc32)cc1 -4.11%
COc1ccc(Cn2c(=O)c3oc4ccccc4c3n(CC(=O)Nc3c(C)cccc3C)c2=O)cc1 -3.69%
Cc1ccc(C(=O)COC(=O)CCC(=O)Nc2ccc(Oc3ccccc3)cc2)cc1 4.78%
Cc1oc2cc3oc(=O)c(CCC(=O)NCCc4ccccc4F)c(C)c3cc2c1C 2.84%
COc1ccc(-c2nc3c(c(SCc4ccc(Br)cc4)n2)Cc2c(CO)cnc(C)c2O3)cc1 2.74%
Cc1ccc(OCCSc2nnc(-c3cccs3)o2)cc1 -13.7%
CCC(=O)N1c2ccccc2CC1C(=O)NCc1ccc(CC)cc1 (stereo unspecified) -0.31%
Cc1ccc2c(c1)c1c(c(=O)n(-c3ccccc3)c(=O)n1Cc1ccccc1C)n2C -0.109%
Cc1cc(C)cc(N(CC(=O)NCCc2ccc(Cl)cc2)S(=O)(=O)c2c(C)noc2C)c1 0.0975%
CN1CCN(C(=O)c2cnn(-c3ccc(F)cc3F)c2C2CCN(C(=O)OC(C)(C)C)CC2)CC1 0.631%
COc1ccc(NC(=O)Nc2nnc(N3CCCC3)s2)cc1 2.82%
Cc1ccc2c(=O)cc(C(=O)N(Cc3ccc(C(C)(C)C)cc3)C3CCS(=O)(=O)C3)oc2c1 (stereo unspecified) -8.73%
Cc1ccc(NC(=O)c2c(C)oc3ccc(O)c(CN4CCOCC4)c23)cc1 8.56%
O=C(c1cc2c(Cl)nc3ccccc3c2s1)N1CCCCC1 -6.41%
Oc1ccc(-c2nc3ccc(Cl)cn3c2Nc2ccc(Cl)cc2)cc1 -4.28%
COc1ccc(Cn2ccc3nc(C)c(C(=O)NCc4ccc(SC)cc4)cc3c2=O)cc1 -8.49%
Cc1ccc(CNS(=O)(=O)c2cnc(N)nc2)cc1 2.44%
Cc1ccccc1NC(=O)Cn1nc(-c2ccccc2)nc(Cc2ccccc2)c1=O 0.413%
COc1ccc(CNC(=O)CSc2nnc(C)c3c(C)n(-c4ccccc4)nc23)c(OC)c1 -9.11%
CCc1ccc2ncc3c(-c4ccc(C)cc4)nn(CC(=O)NCc4ccccc4)c3c2c1 -8.13%
O=C(CSc1nc2ccccc2n1Cc1cccc(F)c1)NCc1ccccc1 0%
CCOC(=O)c1sc2ncn(CC(=O)Nc3ccc(OC)c(Cl)c3)c(=O)c2c1C -20.5%
